The values below are quoted from earlier work in patent US20040254094A1, “Suppression of cyclin kinase activity for prevention and treatment of infections” (priority 2000, published 2004).

In the series the test system is human lung fibroblasts. To be noted: 100 μg/ml (0.75 mM); cited from earlier work.

On to `O=C(O)CP(=O)(O)O` [PAA, phosphonoacetic acid], for which the “cellular DNA synthesis or population doubling times of uninfected cultures” value was “little or no effect”.
